Source: the supplement of paper PMC8728848
The list shows a part of the results.

Experiments:
Experiment in all cases: glycan array binding signal (z-score within array); higher = stronger binding
Conditions in all cases: glycan notation: IUPAC condensed, linker removed
[1] = biological target: Gal(b1-4)GlcNAc(b1-2)Man(a1-6)[GlcNAc(b1-2)Man(a1-3)]Man(b1-4)GlcNAc(b1-4)GlcNAc
How it was run: (§1)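 Glycan array data came from 3228 arrays in the Consortium for Functional Glycomics database, and only arrays with an available protein sequence were kept. Glycan names were put into IUPAC-condensed notation, and columns mapping to the same glycan were averaged. The binding signal is a within-array Z-score, averaged across arrays of one protein sequence run at different concentrations or buffers and across linkers. A negative Z-score can be read as non-binding.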

[2] = biological target: Gal(b1-4)GlcNAc(b1-2)Man(a1-6)[Man(a1-3)]Man(b1-4)GlcNAc(b1-4)GlcNAc
How it was run: as §1

[3] = biological target: Gal(b1-4)GlcNAc(b1-2)[Gal(b1-4)GlcNAc(b1-4)]Man(a1-3)[Gal(b1-4)GlcNAc(b1-2)Man(a1-6)]Man(b1-4)GlcNAc(b1-4)GlcNAc
How it was run: as §1

[4] = biological target: Gal(b1-4)GlcNAc(b1-2)[Gal(b1-4)GlcNAc(b1-4)]Man(a1-3)[Gal(b1-4)GlcNAc(b1-2)[Gal(b1-4)GlcNAc(b1-6)]Man(a1-6)]Man(b1-4)GlcNAc(b1-4)GlcNAc
How it was run: as §1

[5] = biological target: Gal(b1-4)GlcNAc(b1-2)[Gal(b1-4)GlcNAc(b1-4)]Man(a1-3)[GlcNAc(b1-4)][Gal(b1-4)GlcNAc(b1-2)Man(a1-6)]Man(b1-4)GlcNAc(b1-4)GlcNAc
How it was run: as §1

[6] = biological target: Gal(b1-4)GlcNAc(b1-2)[Gal(b1-4)GlcNAc(b1-4)]Man(a1-3)[GlcNAc(b1-4)][Gal(b1-4)GlcNAc(b1-2)[Gal(b1-4)GlcNAc(b1-6)]Man(a1-6)]Man(b1-4)GlcNAc(b1-4)GlcNAc
How it was run: as §1

[7] = biological target: Gal(b1-4)GlcNAc(b1-2)[Gal(b1-4)GlcNAc(b1-6)]Man(a1-6)[Gal(b1-4)GlcNAc(b1-2)Man(a1-3)]Man(b1-4)GlcNAc(b1-4)GlcNAc
How it was run: as §1

[8] = biological target: Gal(b1-4)GlcNAc(b1-2)[Gal(b1-4)GlcNAc(b1-6)]Man(a1-6)[Gal(b1-4)GlcNAc(b1-2)Man(a1-3)]Man(b1-4)GlcNAc(b1-4)[Fuc(a1-6)]GlcNAc
How it was run: as §1

[9] = biological target: Gal(b1-4)GlcNAc(b1-2)[Gal(b1-4)GlcNAc(b1-6)]Man(a1-6)[GlcNAc(b1-4)][Gal(b1-4)GlcNAc(b1-2)Man(a1-3)]Man(b1-4)GlcNAc(b1-4)GlcNAc
How it was run: as §1

[10] = biological target: Gal(b1-4)GlcNAc(b1-2)[Gal(b1-4)GlcNAc(b1-6)]Man(a1-6)[GlcNAc(b1-4)][Gal(b1-4)GlcNAc(b1-2)[Gal(b1-4)GlcNAc(b1-4)]Man(a1-3)]Man(b1-4)GlcNAc(b1-4)[Fuc(a1-6)]GlcNAc
How it was run: as §1

[11] = biological target: Gal(b1-4)GlcNAc(b1-3)Gal(b1-3)GalNAc
How it was run: as §1

[12] = biological target: Gal(b1-4)GlcNAc(b1-3)Gal(b1-3)GlcNAc
How it was run: as §1

[13] = biological target: Gal(b1-4)GlcNAc(b1-3)Gal(b1-4)Glc
How it was run: as §1

[14] = biological target: Gal(b1-4)GlcNAc(b1-3)Gal(b1-4)GlcNAc
How it was run: as §1

[15] = biological target: Gal(b1-4)GlcNAc(b1-3)Gal(b1-4)GlcNAc(b1-2)Man(a1-3)[Gal(b1-4)GlcNAc(b1-3)Gal(b1-4)GlcNAc(b1-2)Man(a1-6)]Man(b1-4)GlcNAc(b1-4)GlcNAc
How it was run: as §1

[16] = biological target: Gal(b1-4)GlcNAc(b1-3)Gal(b1-4)GlcNAc(b1-2)Man(a1-3)[Gal(b1-4)GlcNAc(b1-3)Gal(b1-4)GlcNAc(b1-2)Man(a1-6)]Man(b1-4)GlcNAc(b1-4)[Fuc(a1-6)]GlcNAc
How it was run: as §1

[17] = biological target: Gal(b1-4)GlcNAc(b1-3)Gal(b1-4)GlcNAc(b1-2)[Gal(b1-4)GlcNAc(b1-3)Gal(b1-4)GlcNAc(b1-6)]Man(a1-6)[Gal(b1-4)GlcNAc(b1-3)Gal(b1-4)GlcNAc(b1-2)Man(a1-3)]Man(b1-4)GlcNAc(b1-4)GlcNAc
How it was run: as §1

[18] = biological target: Gal(b1-4)GlcNAc(b1-3)Gal(b1-4)GlcNAc(b1-2)[Gal(b1-4)GlcNAc(b1-3)Gal(b1-4)GlcNAc(b1-6)]Man(a1-6)[Gal(b1-4)GlcNAc(b1-3)Gal(b1-4)GlcNAc(b1-2)Man(a1-3)]Man(b1-4)GlcNAc(b1-4)[Fuc(a1-6)]GlcNAc
How it was run: as §1

[19] = biological target: Gal(b1-4)GlcNAc(b1-3)Gal(b1-4)GlcNAc(b1-3)Gal(b1-4)GlcNAc
How it was run: as §1

[20] = biological target: Gal(b1-4)GlcNAc(b1-3)Gal(b1-4)GlcNAc(b1-3)Gal(b1-4)GlcNAc(b1-2)Man(a1-3)[Gal(b1-4)GlcNAc(b1-3)Gal(b1-4)GlcNAc(b1-3)Gal(b1-4)GlcNAc(b1-2)Man(a1-6)]Man(b1-4)GlcNAc(b1-4)GlcNAc
How it was run: as §1

[21] = biological target: Gal(b1-4)GlcNAc(b1-3)Gal(b1-4)GlcNAc(b1-3)Gal(b1-4)GlcNAc(b1-2)Man(a1-3)[Gal(b1-4)GlcNAc(b1-3)Gal(b1-4)GlcNAc(b1-3)Gal(b1-4)GlcNAc(b1-2)Man(a1-6)]Man(b1-4)GlcNAc(b1-4)[Fuc(a1-6)]GlcNAc
How it was run: as §1

[22] = biological target: Gal(b1-4)GlcNAc(b1-3)Gal(b1-4)GlcNAc(b1-3)Gal(b1-4)GlcNAc(b1-2)[Gal(b1-4)GlcNAc(b1-3)Gal(b1-4)GlcNAc(b1-3)Gal(b1-4)GlcNAc(b1-6)]Man(a1-6)[Gal(b1-4)GlcNAc(b1-3)Gal(b1-4)GlcNAc(b1-3)Gal(b1-4)GlcNAc(b1-2)Man(a1-3)]Man(b1-4)GlcNAc(b1-4)[Fuc(a1-6)]GlcNAc
How it was run: as §1

B1: Als3-N (Candida albicans) (protein)
chain: KTITGVFNSFNSLTWSNAATYNYKGPGTPTWNAVLGWSLDGTSASPGDTFTLNMPCVFKFTTSQTSVDLTAHGVKYATCQFQAGEEFMTFSTLTCTVSNTLTPSIKALGTVTLPLAFNVGGTGSSVDLEDSKCFTAGTNTVTFNDGGKKISINVDFERSNVDPKGYLTDSRVIPSLNKVSTLFVAPQCANGYTSGTMGFANTYGDVQIDCSNIHVGITKGLNDWNYPVSSESFSYTKTCSSNGIFITYKNVPAGYRPFVDAYISATDVNSYTLSYANEYTCAGGYWQRAPFTLRWTGYRNSDAGSNGIVIVATTRTVTDSTTAVTTLPFDPNRDKTKTIEILKPIPTTTITTSYVGVTTSYLTKTAPIGETATVIVDIPYHTTTTVTSKWTGTITSTTTHTNPTDSIDTVIVQVP
Q: B1 was tested. Which “glycan array binding signal (z-score)” value [1] did it give?
A: The value was -0.27.

Q: What about the “glycan array binding signal (z-score)” value [2] of the same binder?
A: Its value is 0.02.

Q: What about the “glycan array binding signal (z-score)” value [3] of the same binder?
A: Its value is -0.236.

Q: What about the “glycan array binding signal (z-score)” value [4] of the same binder?
A: Its value is -0.36.

Q: What about the “glycan array binding signal (z-score)” value [5] of the same binder?
A: The value was -0.288.

Q: And the “glycan array binding signal (z-score)” value [6]?
A: The value was -0.249.

Q: And the “glycan array binding signal (z-score)” value [7]?
A: The value was 0.505.

Q: And the “glycan array binding signal (z-score)” value [8]?
A: The value was 0.418.

Q: What about the “glycan array binding signal (z-score)” value [9] of the same binder?
A: The value was -0.255.

Q: And the “glycan array binding signal (z-score)” value [10]?
A: Its value is -0.109.

Q: What about the “glycan array binding signal (z-score)” value [11] of the same binder?
A: The value was -0.308.

Q: And the “glycan array binding signal (z-score)” value [12]?
A: Its value is -0.246.

Q: And the “glycan array binding signal (z-score)” value [13]?
A: Its value is -0.26.

Q: What about the “glycan array binding signal (z-score)” value [14] of the same binder?
A: The value was -0.193.

Q: And the “glycan array binding signal (z-score)” value [15]?
A: Its value is 8.26.

Q: And the “glycan array binding signal (z-score)” value [16]?
A: Its value is 0.229.

Q: And the “glycan array binding signal (z-score)” value [17]?
A: Its value is 0.906.

Q: What about the “glycan array binding signal (z-score)” value [18] of the same binder?
A: The value was 0.224.

Q: And the “glycan array binding signal (z-score)” value [19]?
A: Its value is -0.356.

Q: And the “glycan array binding signal (z-score)” value [20]?
A: Its value is 3.26.

Q: And the “glycan array binding signal (z-score)” value [21]?
A: Its value is -0.02.

Q: And the “glycan array binding signal (z-score)” value [22]?
A: The value was 0.187.
